# From article PMC5043580
# Chains of the proteins cited; added tags and fusions are not shown. Lines headed by an entry give the natural chain unless they say otherwise; changes in a name come on top.
# UniProt Q03267: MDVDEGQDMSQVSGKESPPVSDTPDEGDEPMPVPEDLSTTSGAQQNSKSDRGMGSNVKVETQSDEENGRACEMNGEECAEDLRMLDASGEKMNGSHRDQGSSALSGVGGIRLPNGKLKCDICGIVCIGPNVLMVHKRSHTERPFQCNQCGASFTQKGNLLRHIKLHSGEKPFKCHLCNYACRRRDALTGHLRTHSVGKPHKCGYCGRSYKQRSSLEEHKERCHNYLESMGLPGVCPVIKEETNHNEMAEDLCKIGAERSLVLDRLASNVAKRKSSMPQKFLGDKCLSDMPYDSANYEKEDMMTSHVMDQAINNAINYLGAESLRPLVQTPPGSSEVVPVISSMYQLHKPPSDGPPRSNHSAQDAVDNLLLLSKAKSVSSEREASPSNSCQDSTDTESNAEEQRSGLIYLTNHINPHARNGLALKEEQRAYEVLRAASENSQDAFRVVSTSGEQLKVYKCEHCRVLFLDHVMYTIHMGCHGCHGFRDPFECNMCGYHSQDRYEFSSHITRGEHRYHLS
# UniProt O08900: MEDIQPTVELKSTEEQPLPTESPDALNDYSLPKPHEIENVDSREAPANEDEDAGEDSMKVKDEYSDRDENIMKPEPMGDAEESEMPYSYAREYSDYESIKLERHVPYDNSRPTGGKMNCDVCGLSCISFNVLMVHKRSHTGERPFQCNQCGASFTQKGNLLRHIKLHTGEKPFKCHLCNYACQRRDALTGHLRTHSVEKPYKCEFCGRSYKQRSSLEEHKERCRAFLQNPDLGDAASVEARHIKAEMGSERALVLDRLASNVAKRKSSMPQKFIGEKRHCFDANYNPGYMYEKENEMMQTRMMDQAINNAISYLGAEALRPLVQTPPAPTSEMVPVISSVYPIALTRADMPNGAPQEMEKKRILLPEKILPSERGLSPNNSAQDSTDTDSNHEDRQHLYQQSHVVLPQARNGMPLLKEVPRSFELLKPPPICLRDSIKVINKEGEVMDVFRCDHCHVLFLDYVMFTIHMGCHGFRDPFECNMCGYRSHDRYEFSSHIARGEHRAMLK
# UniProt O89091: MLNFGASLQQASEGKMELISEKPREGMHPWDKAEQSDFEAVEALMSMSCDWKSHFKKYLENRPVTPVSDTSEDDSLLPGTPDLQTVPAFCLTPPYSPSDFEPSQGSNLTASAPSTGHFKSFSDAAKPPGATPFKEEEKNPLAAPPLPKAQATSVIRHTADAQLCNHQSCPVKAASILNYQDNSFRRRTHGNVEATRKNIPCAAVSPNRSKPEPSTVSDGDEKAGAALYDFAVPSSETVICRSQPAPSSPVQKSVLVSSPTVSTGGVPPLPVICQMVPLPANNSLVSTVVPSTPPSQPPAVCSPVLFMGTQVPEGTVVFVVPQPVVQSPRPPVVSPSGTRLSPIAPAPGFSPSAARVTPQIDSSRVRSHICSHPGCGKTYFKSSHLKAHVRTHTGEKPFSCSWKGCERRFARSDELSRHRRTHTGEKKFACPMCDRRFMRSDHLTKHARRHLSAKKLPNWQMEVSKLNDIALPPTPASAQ
# UniProt P52952: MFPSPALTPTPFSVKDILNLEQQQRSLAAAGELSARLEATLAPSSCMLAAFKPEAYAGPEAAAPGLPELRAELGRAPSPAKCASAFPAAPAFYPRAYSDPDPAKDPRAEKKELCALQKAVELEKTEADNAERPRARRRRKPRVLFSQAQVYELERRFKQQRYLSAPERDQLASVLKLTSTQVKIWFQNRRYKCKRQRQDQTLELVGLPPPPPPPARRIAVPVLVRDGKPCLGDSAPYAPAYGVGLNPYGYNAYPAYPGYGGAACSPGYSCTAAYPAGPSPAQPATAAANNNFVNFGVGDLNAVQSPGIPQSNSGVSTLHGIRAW
# UniProt P13297: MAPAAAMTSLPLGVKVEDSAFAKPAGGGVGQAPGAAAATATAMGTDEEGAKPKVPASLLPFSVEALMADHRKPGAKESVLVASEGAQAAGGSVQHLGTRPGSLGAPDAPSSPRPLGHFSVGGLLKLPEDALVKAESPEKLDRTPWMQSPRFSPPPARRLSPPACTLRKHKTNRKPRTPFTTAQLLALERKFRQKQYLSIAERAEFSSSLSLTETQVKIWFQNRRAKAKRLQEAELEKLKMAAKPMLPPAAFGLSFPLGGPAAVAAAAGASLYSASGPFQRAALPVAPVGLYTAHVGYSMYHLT
# UniProt Q99811: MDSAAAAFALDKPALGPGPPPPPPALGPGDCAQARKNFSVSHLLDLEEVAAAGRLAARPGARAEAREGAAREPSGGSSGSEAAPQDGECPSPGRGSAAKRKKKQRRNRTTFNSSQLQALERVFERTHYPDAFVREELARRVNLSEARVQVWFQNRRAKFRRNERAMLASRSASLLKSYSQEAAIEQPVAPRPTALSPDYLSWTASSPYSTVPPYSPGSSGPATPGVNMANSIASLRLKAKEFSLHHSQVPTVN
# UniProt P19793: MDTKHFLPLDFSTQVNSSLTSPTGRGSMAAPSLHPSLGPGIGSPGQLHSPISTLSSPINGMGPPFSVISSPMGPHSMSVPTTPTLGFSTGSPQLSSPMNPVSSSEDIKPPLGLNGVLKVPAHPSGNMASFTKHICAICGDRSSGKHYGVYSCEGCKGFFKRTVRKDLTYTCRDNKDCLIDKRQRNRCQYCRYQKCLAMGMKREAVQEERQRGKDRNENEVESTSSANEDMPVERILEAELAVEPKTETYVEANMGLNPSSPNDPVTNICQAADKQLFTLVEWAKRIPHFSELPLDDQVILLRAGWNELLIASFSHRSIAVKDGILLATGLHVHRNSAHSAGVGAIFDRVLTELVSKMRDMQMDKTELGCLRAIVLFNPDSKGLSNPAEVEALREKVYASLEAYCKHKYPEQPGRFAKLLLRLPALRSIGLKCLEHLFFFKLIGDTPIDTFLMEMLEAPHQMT
# No constants are given. Whether binding was seen depends on the method and setting. Some results given as binding are weak or reduced against the parent protein; the word gives no strength. For some assays here: Where a sequence is shown, tags or fusion partners need not be part of it.
# Columns and labels:
# Test in all cases: two-hybrid; NKX2-5 fused to GAL4-AD (pGADT7), partners fused to GAL4-DBD (pGBKT7); co-transformed into S. cerevisiae AH109; double transformants selected on -Leu/-Trp, interaction read as growth on high stringency -Ade/-His/-Leu/-Trp plates
# [1] = target: IKAROS family zinc finger 1 (UniProt Q03267)
# IKZF3 = IKZF3 (UniProt O08900)
# IKZF5 = target: T1, IKZF5 (UniProt Q9H5V7)
# T1 sequence: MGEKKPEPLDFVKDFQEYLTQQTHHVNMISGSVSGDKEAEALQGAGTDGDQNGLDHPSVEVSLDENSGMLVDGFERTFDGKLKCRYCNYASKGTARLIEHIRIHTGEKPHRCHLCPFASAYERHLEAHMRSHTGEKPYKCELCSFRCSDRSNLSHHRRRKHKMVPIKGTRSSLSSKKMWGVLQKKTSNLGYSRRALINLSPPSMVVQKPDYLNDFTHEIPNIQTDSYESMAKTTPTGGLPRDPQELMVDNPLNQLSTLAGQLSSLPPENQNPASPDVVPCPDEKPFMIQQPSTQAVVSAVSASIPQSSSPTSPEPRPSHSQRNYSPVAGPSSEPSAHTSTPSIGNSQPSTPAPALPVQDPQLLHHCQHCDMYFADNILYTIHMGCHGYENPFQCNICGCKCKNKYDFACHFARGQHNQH
# [2] = target: Kruppel-like factor 10 (murine) (UniProt O89091)
# NKX2-5 wild type = NKX2-5 wild type (UniProt P52952)
# RXRγ = target: T2, RXRγ (UniProt P28705)
# T2 sequence: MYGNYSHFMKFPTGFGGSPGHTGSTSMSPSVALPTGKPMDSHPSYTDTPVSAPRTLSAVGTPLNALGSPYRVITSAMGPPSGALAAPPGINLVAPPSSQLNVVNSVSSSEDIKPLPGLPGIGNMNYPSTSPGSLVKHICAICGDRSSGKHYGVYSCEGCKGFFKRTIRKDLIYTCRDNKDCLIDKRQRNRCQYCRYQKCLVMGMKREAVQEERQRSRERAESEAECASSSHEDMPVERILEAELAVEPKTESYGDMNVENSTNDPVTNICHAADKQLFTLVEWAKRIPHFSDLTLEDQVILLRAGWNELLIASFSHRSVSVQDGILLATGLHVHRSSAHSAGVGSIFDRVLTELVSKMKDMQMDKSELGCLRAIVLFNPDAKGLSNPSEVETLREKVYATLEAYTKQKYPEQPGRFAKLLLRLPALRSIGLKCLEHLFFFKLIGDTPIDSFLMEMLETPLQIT
# TFAP4 = target: T3, TFAP4 (UniProt Q01664)
# T3 sequence: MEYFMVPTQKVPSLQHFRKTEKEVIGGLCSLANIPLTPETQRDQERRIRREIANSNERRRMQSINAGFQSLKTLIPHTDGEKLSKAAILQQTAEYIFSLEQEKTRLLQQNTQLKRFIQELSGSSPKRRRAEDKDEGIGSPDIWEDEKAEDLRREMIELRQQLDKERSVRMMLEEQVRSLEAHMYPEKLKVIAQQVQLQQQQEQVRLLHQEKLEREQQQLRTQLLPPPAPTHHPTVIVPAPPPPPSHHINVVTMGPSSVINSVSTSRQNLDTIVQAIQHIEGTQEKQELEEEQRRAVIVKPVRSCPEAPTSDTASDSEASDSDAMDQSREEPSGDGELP
# [3] = target: T4, glucocorticoid modulatory element binding protein 1 (murine) (UniProt Q9JL60)
# T4 sequence: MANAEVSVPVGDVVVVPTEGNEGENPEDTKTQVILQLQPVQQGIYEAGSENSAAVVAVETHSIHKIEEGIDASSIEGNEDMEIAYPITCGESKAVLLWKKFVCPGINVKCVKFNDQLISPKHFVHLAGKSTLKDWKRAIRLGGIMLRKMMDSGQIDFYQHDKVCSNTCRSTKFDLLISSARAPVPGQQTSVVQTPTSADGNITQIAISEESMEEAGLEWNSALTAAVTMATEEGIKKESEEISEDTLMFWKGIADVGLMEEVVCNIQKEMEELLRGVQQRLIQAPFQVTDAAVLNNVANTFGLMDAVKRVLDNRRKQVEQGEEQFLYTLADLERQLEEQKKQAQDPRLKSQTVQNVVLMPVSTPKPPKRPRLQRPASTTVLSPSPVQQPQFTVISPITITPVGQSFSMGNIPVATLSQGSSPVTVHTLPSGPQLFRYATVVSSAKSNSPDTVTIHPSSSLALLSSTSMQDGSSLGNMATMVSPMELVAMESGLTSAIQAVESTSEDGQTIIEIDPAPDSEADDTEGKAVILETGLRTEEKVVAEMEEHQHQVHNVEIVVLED
# [4] = target: msh homeobox MSX1 (murine) (UniProt P13297)
# nuclear TF Y-γ (murine) = target: T5, nuclear TF Y-γ (murine) (UniProt P70353)
# T5 sequence: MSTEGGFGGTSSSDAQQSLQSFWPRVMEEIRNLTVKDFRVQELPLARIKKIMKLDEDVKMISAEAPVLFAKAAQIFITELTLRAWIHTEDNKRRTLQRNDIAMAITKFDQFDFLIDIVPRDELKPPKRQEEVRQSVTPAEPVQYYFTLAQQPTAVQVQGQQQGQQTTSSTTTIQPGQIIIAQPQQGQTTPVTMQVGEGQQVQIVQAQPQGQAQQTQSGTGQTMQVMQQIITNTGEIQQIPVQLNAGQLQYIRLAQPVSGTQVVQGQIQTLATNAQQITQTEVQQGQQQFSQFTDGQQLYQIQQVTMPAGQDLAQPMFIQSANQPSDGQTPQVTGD
# [5] = target: paired-related homeobox 2 (UniProt Q99811)
# [6] = target: retinoid X receptor α (human) (UniProt P19793)
# [7] = target: T6, zinc finger and BTB domain containing 11 (murine) (UniProt G5E8B9)
# T6 sequence: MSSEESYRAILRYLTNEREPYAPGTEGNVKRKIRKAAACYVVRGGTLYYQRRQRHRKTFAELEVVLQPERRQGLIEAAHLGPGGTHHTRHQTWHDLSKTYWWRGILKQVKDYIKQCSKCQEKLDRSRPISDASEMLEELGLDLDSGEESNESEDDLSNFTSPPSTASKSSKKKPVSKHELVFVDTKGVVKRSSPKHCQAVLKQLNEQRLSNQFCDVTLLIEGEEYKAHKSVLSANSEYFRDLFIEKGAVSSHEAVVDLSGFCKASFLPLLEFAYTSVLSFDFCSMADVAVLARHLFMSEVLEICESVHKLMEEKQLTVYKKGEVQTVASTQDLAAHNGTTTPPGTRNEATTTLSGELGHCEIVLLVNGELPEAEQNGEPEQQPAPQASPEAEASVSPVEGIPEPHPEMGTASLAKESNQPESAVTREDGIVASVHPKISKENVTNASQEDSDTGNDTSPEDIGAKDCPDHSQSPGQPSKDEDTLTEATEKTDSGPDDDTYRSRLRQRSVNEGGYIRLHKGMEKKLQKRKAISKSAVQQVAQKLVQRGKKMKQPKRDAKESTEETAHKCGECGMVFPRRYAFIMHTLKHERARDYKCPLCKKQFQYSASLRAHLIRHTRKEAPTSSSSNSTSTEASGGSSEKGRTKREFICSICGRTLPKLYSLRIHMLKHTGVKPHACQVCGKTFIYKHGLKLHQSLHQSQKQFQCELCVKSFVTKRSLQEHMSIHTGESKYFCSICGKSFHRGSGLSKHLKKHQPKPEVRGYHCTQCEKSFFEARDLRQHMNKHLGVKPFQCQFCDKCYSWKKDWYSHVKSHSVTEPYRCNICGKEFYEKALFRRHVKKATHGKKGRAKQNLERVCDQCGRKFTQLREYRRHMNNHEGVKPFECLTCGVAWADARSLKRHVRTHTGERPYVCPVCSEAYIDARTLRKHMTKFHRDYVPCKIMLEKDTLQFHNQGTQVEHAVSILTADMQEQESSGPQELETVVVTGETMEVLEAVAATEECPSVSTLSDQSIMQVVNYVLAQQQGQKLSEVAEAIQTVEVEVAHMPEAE
substance,measurement,setting,value
NKX2-5 wild type (from UniProt P52952 1-324),binding,[1],binds
same,binding,IKZF3,binds
same,binding,IKZF5,binds
same,binding,[2],no binding
same,binding,NKX2-5 wild type,binds
same,binding,RXRγ,no binding
same,binding,TFAP4,no binding
same,binding,[3],no binding
same,binding,[4],no binding
same,binding,nuclear TF Y-γ (murine),no binding
same,binding,[5],binds
same,binding,[6],binds
same,binding,[7],no binding
NKX2-5 Q187H (from UniProt P52952 1-324),binding,[6],binds
NKX2-5 R190H (from UniProt P52952 1-324),binding,[6],binds
NKX2-5 N188K (from UniProt P52952 1-324),binding,[6],binds
NKX2-5 R189G (from UniProt P52952 1-324),binding,[6],binds
